Reference: publication PMC4336329 (PLoS ONE, 2015)
About 2,200 (0.71%) of roughly 310,000 compounds showed an effect of 50% or more. The effect is printed as a negative number. The list shows a part of the results.

Biological target: human ether-à-go-go-related gene (hERG) potassium channel (human, UniProt Q12809)
Experiment: primary screen, population patch clamp on CHO cells stably expressing hERG

human ether-à-go-go-related gene (hERG) potassium channel, sequence (Q12809 whole entry, looked up): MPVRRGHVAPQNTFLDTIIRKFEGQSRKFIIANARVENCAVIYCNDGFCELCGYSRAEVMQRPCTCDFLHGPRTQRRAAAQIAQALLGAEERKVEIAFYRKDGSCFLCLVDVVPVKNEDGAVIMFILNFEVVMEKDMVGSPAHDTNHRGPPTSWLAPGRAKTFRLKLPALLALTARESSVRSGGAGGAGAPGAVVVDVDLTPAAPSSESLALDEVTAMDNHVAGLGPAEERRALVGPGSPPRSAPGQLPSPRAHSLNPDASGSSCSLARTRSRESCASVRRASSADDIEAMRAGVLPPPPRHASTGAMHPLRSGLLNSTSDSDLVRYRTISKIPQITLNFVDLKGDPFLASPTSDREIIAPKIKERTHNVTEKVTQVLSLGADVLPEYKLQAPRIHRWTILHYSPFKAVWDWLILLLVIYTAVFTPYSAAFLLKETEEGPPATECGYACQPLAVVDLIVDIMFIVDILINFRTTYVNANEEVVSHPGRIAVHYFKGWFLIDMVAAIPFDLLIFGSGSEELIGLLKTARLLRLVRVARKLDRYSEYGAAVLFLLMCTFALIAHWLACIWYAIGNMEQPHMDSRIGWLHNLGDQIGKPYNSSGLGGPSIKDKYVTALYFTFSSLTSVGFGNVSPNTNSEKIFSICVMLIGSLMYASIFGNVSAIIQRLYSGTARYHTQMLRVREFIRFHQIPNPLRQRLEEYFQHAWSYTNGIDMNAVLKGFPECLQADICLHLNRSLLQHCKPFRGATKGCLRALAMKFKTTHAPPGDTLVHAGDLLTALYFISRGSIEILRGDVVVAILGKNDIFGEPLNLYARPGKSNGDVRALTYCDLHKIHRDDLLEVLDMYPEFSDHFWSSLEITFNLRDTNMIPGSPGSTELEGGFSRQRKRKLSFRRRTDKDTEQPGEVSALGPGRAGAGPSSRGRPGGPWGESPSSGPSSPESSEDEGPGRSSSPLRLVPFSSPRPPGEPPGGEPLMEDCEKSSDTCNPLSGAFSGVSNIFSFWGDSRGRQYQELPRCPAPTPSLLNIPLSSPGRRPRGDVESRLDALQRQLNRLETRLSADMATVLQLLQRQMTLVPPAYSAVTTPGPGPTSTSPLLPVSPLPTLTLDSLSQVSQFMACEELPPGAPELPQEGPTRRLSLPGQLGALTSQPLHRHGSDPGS

Structure (SMILES)	hERG current change (%, negative = inhibition) at 1uM
CCS(=O)(=O)n1nc(-c2ccco2)nc1SC	7.34%
O=C(COc1ccc(Br)cc1)Nc1ccncc1	6.95%
O=S(=O)(c1ccccc1)c1nc(-c2ccco2)oc1NCc1ccco1	8.3%
CCn1nnc(NC(=O)Cc2ccc(Cl)cc2)n1	6.04%
CCCCn1c(SCC(=O)Nc2nnc(C)s2)nnc1-c1ccncc1	14.6%
C=CCn1c(-c2cccc3ccccc23)n[nH]c1=S	-5.02%
COC(=O)c1cn(C(=O)c2ccc(OC)c(OC)c2)c2ccccc12	7.78%
N/C(=N\OS(=O)(=O)c1ccc(Cl)cc1)c1cccnc1	8.36%
COc1cccc(N2CC(NC(=O)C(=O)c3c(C)[nH]c4ccccc34)CC2=O)c1 (stereo not drawn)	16.3%
COc1ccc(N2CCN(C(=O)COCc3cc(-c4ccc5c(c4)OCO5)on3)CC2)cc1	7.52%
COc1cc(/C=N/Nc2ncc(C(F)(F)F)cc2Cl)cc(OC)c1O	-32.8%
Cc1ccc(NC(=O)CSc2n[nH]c(N)n2)cc1S(=O)(=O)N1CCOCC1	3.69%
O=C(O)CCC(=O)N1CCC(C(=O)c2cccc(Cl)c2)CC1	21.7%
COc1ccccc1C(=O)N=C1NC(=O)CC2C(=O)NCCN12 (stereo not drawn)	-1.15%
COc1ccc(NC(=O)Cc2ccsc2)cc1S(=O)(=O)N1CCCCC1	-0.987%
CS(=O)(=O)c1ccc(-c2csc(-c3cccnc3)n2)cc1	10.4%
Cc1cccc(C)c1OCC(=O)Nc1ccccc1N1CCCCC1	6.66%
O=c1[nH]cc(S(=O)(=O)N2CCCc3ccccc32)c(=O)[nH]1	1.85%
CCCn1c(SCC(=O)Nc2cc(Cl)ccc2Cl)n[nH]c1=O	0.489%
COc1ccccc1-c1cc(C(F)(F)F)nc(S(=O)(=O)CCCC(=O)NCc2ccc(F)cc2)n1	-24.1%
CCCCn1c(N)c(N(CC(C)C)C(=O)C2CC(=O)N(c3ccccc3C(C)CC)C2)c(=O)[nH]c1=O (stereo not drawn)	7.75%
O=C(NCc1ccc2c(c1)OCO2)c1ccc(CS(=O)(=O)c2ccc(Br)cc2)o1	0.797%

Structure (SMILES)	hERG current change (%, negative = inhibition) at 1uM
C=CCN1CC(c2nc3ccccc3n2Cc2cccc3ccccc23)CC1=O (stereo not drawn)	2.48%
Cc1ccccc1OCC(=O)Nc1ccc(N2CCOCC2)cc1N1CCOCC1	4.91%
CCOC(=O)c1ccc(S(=O)(=O)N2CCN(CC(=O)NC(=O)NC3CCCCC3)CC2)cc1	3.86%
Nc1nc(SCc2nc(-c3ccccc3)no2)[nH]c(=O)c1-c1ccccc1	-12.1%
Cc1cc(C)n2nc(S(=O)(=O)N(CC(C)C)CC(C)C)nc2n1	8.03%
CN(C)C1=NC[C@H](Cc2ccccc2)N1CCC1CCCC1	-19.7%
Cc1c(NC(=O)Cn2nc(C(F)(F)F)c3c2CCCC3)c(=O)n(-c2ccccc2)n1C	9.76%
COc1ccc2oc(C(=O)OCC(=O)N(C)C3CCCCC3)c(C)c2c1	14.5%
Cc1ccc(NC(=O)COc2ccc(N(C)S(=O)(=O)c3ccc(F)cc3)cc2)cc1	7.43%
Cc1oc2c(C)c3oc(=O)c(CCC(=O)NCCCN4CCCC4=O)c(C)c3cc2c1C	-8.83%
COc1ccccc1NC(=O)c1ccc(-c2nn(C)c(=O)c3ccccc23)cc1	-9.68%
CCOC(=O)c1ccc(S(=O)(=O)Nc2nc3cc(S(=O)(=O)NC4=NCCCCC4)ccc3s2)cc1	9.26%
CC1(O)C(=O)C=C2C=C(C3CC3)OC=C2C1=O (stereo not drawn)	19.2%
COC(=O)c1cc(C#N)c(NCc2ccc(Cl)cc2Cl)nc1C	-9.23%
CC(=O)c1ccccc1NCC(=O)Nc1ccc(C)cc1	13.7%
O=C(Nc1ccc2c(c1)OCCO2)N1CCOCC1	11.4%
CCOc1ccc(/C=N/NC(=O)c2ccoc2C)cc1OC	15.5%
CC1CC(C)CN(c2nc3c(c(=O)n(C)c(=O)n3C)n2C)C1 (stereo not drawn)	11.1%
Cc1ccccc1NC(=O)c1cccc(Cn2cc(Br)c([N+](=O)[O-])n2)c1	1.01%
O=C(O)C(F)(F)F.O=C1C(Cc2ccccc2)Nc2ncnc(N3CCN(c4ccccc4)CC3)c2N1Cc1ccc(Cl)cc1 (stereo not drawn)	7.08%
COc1ccc(CCNC(=O)C23CCC(C)(C(=O)C2=O)C3(C)C)cc1OC (stereo not drawn)	1.99%
O=C(OCN1C(=O)c2ccccc2C1=O)C1CCCCC1	-0.118%

Structure (SMILES)	hERG current change (%, negative = inhibition) at 1uM
O=C(Cn1c(SCC(=O)N2CCc3ccccc32)nc2ccccc21)NC1CCCC1	21.1%
CCOc1cc(CNCCSc2nnnn2C)cc(Br)c1OCc1ccccc1.Cl	-5.73%
Cc1ccc(NC(=O)CCC(=O)NNC(=O)c2cccc([N+](=O)[O-])c2)cc1C	-3.08%
CCOc1cc(/C=C2\SC(=S)N(NS(=O)(=O)c3ccccc3)C2=O)ccc1O	22.1%
COc1cccc(-c2c(C(=O)N/N=C/c3ccc(C)o3)nnn2-c2nonc2N)c1	-1.7%
O=C(O)c1cc(N2C(=O)CCC2=O)ccc1NCc1cccnc1	17.1%
Cc1[nH]n(-c2ccccc2)c(=O)c1C1(C(F)(F)F)C(=O)N(c2ccc(F)cc2)C2=C1C(=O)CC(C)(C)C2 (stereo not drawn)	5.76%
CN(C)c1ccc(P(=S)(N(C)C)N(C)C)cc1	10.7%
N[C@@H](CCC(=O)N[C@@H](CSN=O)C(=O)NCC(=O)O)C(=O)O	0.457%
COc1ccccc1NC(=O)N1CCCC1C(=O)Nc1ccc2c(c1)OCCO2 (stereo not drawn)	5.44%
Cc1cnc(C(=O)OCC(=O)c2cc(C)n(C)c2C)cn1	10.1%
COc1ccc(CNC(=O)[C@H](C)NC(=O)C2CCN(C(=O)[C@@H](N)Cc3ccccc3)CC2)cc1	4.82%
COc1ccccc1N1CCN(CC(=O)c2c(N)n(C)c(=O)n(C)c2=O)CC1	4.93%
CSCC[C@H](NC(=O)OC(C)(C)C)C(=O)N1CCC(C(=O)N[C@@H](Cc2c[nH]c3ccccc23)C(=O)O)CC1	24.6%
Cc1nn(CC(=O)Nc2ccccn2)c(=O)c2ccccc12	11.1%
N#Cc1c(/N=C\c2ccc(O)c([N+](=O)[O-])c2)sc2c1CCCC2	13.1%
O=C1c2cccnc2C(O)N1Cc1ccco1 (stereo not drawn)	5.47%
CCN(CC)C(=O)c1nc[nH]c1C(=O)N(CC)CC	13.1%
O=C(Nc1ccccc1-c1ccccc1)NC1CC2CCCC(C1)N2CCc1ccccc1 (stereo not drawn)	2.01%
COC(=O)c1cn(NC(=O)C2CCC(C(C)(C)C)CC2)c(=O)c2ccccc12 (stereo not drawn)	13.5%
CC(=O)Nc1cccc(C(=O)/C=C/c2ccc(Br)cc2)c1	3.85%
Cc1nnc(SCC(=O)Nc2cc(C(N)=O)cc(C(N)=O)c2)n1-c1ccccc1	17.6%

Structure (SMILES)	hERG current change (%, negative = inhibition) at 1uM
CCNC(=S)NNC(=O)c1ccccn1	7.29%
C=CCn1nc(-c2ccccc2)c2c(C)onc2c1=O	0.704%
NC(=O)c1ccc(NC(=O)COC(=O)C(Cc2ccccc2)NC(=O)c2ccccc2)cc1 (stereo not drawn)	6.79%
COc1ccc(-n2c(O)c(C=NCc3ccc4c(c3)OCO4)c(=O)[nH]c2=O)cc1	11.1%
COc1ccc([N+](=O)[O-])cc1/C=N/NC(=O)c1nonc1N	12.4%
CCN(CC)CCCN1C(=O)c2oc3ccccc3c(=O)c2C1c1cc(OC)ccc1OC (stereo not drawn)	-3.13%
CCOC(=O)N/N=C/c1cccnc1	5%
Cc1cccc(C)c1NC(=S)N(CCc1ccncc1)C(C)C	14.1%
CCOc1ccc(OCc2ccc(C(=O)Nc3cccc(C)n3)o2)cc1	5.63%
CN(C)CCN(Cc1ccccc1)S(=O)(=O)c1csc(C(N)=O)c1	17.6%
N#CC(C#N)=C(N)CSc1cccc[n+]1[O-]	16.4%
CCOC(=O)c1c(C)[nH]c(N=Nc2ccc(C)cc2)c1C	11.9%
Cc1ccc(NC(=O)Cn2cnc3sc(C(=O)NCc4ccco4)c(C)c3c2=O)cc1Cl	-1.33%
COc1ccc(CNC(=O)CCCn2nc(C)c([N+](=O)[O-])c2C)cc1	2.05%
CCOC(=O)c1c(C)n(C)c2ccc(OCC(O)CN3CCCCCC3)cc12.Cl (stereo not drawn)	1.74%
O=c1[nH]c2ccccc2nc1C(F)(F)F	10.6%
FC(F)(F)Oc1ccc(Nc2nc3ccccc3o2)cc1	11.5%
COc1ccc(/C=C2\CCn3c2nc2cc(C(=O)O)ccc2c3=O)cc1	9.29%
CCc1noc(C)c1C(=O)N1CCCC1	9.92%
COCc1cc(C)nc2sc(C(=O)NN)c(-n3cccc3)c12	6.7%
COc1ccc(C(=O)C2CCCN(S(=O)(=O)c3ccccc3F)C2)c(C)c1 (stereo not drawn)	10.1%
